The values that follow come from the supplement of paper PMC4723716.

In this assay the test system is Plasmodium falciparum NF54 stage V gametocytes. Put plainly: viability index relative to DMSO control (fraction); higher = less gametocyte killing. The note with it: 2.5 µM, incubation time: 72 h. The procedure, abridged:
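Stage V gametocytes of P. falciparum NF54 were held in serum-free screening medium at 0.75% gametocytemia and 1.25% hematocrit, 10 µl per well of a 1,536-well plate, and exposed to compound at 2.5 µM for 72 hr at 37°C under low oxygen. A 3 µl mix of 2.5 µM MitoTracker Red CMXRos with 0.13% saponin was then added for one to two hours, after which one field per well was imaged and red particles of 20–70 µm2 were counted. The viability index equals this count divided by the plate mean from wells given solvent alone.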

Setting [1] is: library set: Broad Institute DOS.

± gives the uncertainty stated by the source. The full ranking holds about 9,900 compounds; the median of “viability index relative to DMSO control” is about 1, and the lowest 2% start at about 0.85. This is one part of the list.

The compound `C[C@@H]1CCn2cc(nn2)COC[C@H](C)NC1=O` had a viability index under setting [1] of 1.06 ± 0.018. On the same count and under the same terms, to `C[C@@H]1CN([C@@H](C)CO)C(=O)CCCn2cc(nn2)CO[C@@H]1CN(C)S(=O)(=O)c1ccc(-n2cccn2)cc1` belongs 1.03 ± 0.037; to `C[C@@H]1C/C=C/C[C@H](c2ccccc2)NC(=O)[C@H](C)N(C)C(=O)c2ccccc2O1.C[C@@H]1C/C=C\C[C@H](c2ccccc2)NC(=O)[C@H](C)N(C)C(=O)c2ccccc2O1`, 1.008 ± 0.0064. Regarding `C[C@H]1CN([C@@H](C)CO)C(=O)Cc2cc(NC(=O)c3ccncc3)ccc2O[C@H]1CN(C)C(=O)Nc1ccc(F)cc1`, the viability index under setting [1] worked out at 0.923 ± 0.21.

As for `C[C@@H]1CN([C@@H](C)CO)C(=O)CCCn2nncc2CO[C@@H]1CN(C)C(=O)Nc1ccc(-c2cccs2)cc1`, the viability index under setting [1] is 1.06 ± 0.048.

Compound `C[C@H](CO)N1C[C@H](C)[C@@H](CN(C)C(=O)Cc2ccccn2)Oc2ncc(-c3cccc(C(=O)N(C)C)c3)cc2C1=O` showed a viability index under setting [1] of 0.944 ± 0.055.

Consider `CO[C@H]1CC[C@H]2CCOc3c(C#N)cccc3C(=O)N(C)C[C@@H](OC)[C@H](C)C(=O)N(C)C[C@@H]1O2`, for which, under setting [1], the viability index amounted to 1.025 ± 0.0061.

The compound `COc1cccc(S(=O)(=O)N2CCCCN3[C@H](C2)[C@@H](c2ccc(C#CCC(C)C)cc2)[C@@H]3CO)c1` displayed a viability index under setting [1] of 0.857 ± 0.061. The same measure, in the same setting: as for `CCCNC(=O)C[C@@H]1CC[C@H]2[C@@H](COc3ccc(NC(=O)CC)cc3C(=O)N2C)O1`, the figure is 1.14 ± 0.029; as for `CN1C(=O)c2cc(NC(=O)c3cccc(F)c3)ccc2OC[C@@H]2O[C@H](CC(=O)NCc3ccccc3Cl)CC[C@H]21`, 1.13 ± 0.036.

Regarding `O=C(C1CCOCC1)N1CC(=O)N2[C@H](C1)[C@@H](c1ccc(/C=C/c3ccccc3)cc1)[C@@H]2CO`, the viability index under setting [1] was found to be 1.11 ± 0.023. Same read-out and setting: as for `O=C(c1cccnc1)N1CC(=O)N2[C@H](CO)[C@@H](c3ccc(-c4ccccc4F)cc3)[C@@H]2C1`, the figure is 1.079 ± 0.008; as for `CCCC#Cc1ccc([C@H]2[C@@H](CO)N3C(=O)CN(S(=O)(=O)c4ccccc4C)C[C@@H]23)cc1`, 0.987 ± 0.039. On the same count and under the same terms, as for `Cc1cccc(-c2ccc([C@H]3[C@@H]4CN(C(=O)c5ccncc5)C[C@H]3N4)cc2)c1`, the figure is 1.05 ± 0.079; as for `Cc1ccc(S(=O)(=O)Nc2ccc3c(c2)C(=O)N([C@@H](C)CO)C[C@H](C)[C@@H](CN(C)Cc2ccc(C(F)(F)F)cc2)O3)cc1`, 1.005 ± 0.0077. Take `CO[C@H]1CC[C@@H]2CCOc3ccc(C#N)cc3C(=O)N(C)[C@H](C)C(=O)N(C)C[C@@H]1O2`: the viability index under setting [1] turned out to be 1.067 ± 0.0011. Still for that read-out and setting: as for `CCNC(=O)C[C@H]1CC[C@@H]2[C@H](COC[C@@H](O)CN2C(=O)c2ccccn2)O1`, the figure is 1 ± 0.081; as for `CN1C(=O)c2cc(NS(C)(=O)=O)ccc2OC[C@H]2O[C@@H](CC(=O)NCc3ccccc3)CC[C@@H]21`, 1.14 ± 0.038. Same read-out and setting: to `COc1ccc(C#Cc2ccc([C@@H]3[C@H](CO)N4C(=O)CN(C(=O)c5ccc(F)cc5)C[C@@H]34)cc2)cc1` belongs 1 ± 0.017; to `CC(C)[C@@H]1CCc2cnnn2COC[C@@H](Cc2ccccc2)NC1=O`, 1.02 ± 0.038. Regarding `C[C@H](CO)N1C[C@H](C)[C@H](CN(C)C(=O)C2CCCCC2)Oc2ncc(C#Cc3cccc(F)c3)cc2C1=O`, for the setting “library set: Broad Institute Blood Stage”, the viability index was determined as 0.62 ± 0.074.

Take `COCC(=O)Nc1ccc2c(c1)[C@H]1C[C@@H](CC(=O)N[C@@H](C)c3ccccc3)O[C@H](CO)[C@H]1O2`: the viability index under setting [1] came out at 1.052 ± 0.0051. On the same count and under the same terms, as for `N#Cc1ccc(-c2ccc([C@H]3[C@@H](CO)N4C(=O)CNC[C@@H]34)cc2)cc1`, the figure is 0.965 ± 0.1; as for `Cc1ccc(S(=O)(=O)Nc2ccc3c(c2)C(=O)N([C@H](C)CO)C[C@H](C)[C@H](CN(C)S(=O)(=O)c2cccs2)OCCCC[C@@H](C)O3)cc1`, 1.14 ± 0.096; as for `CO[C@H]1CC[C@H]2CCN(C)C(=O)[C@H](C)N(C)C(=O)c3cccc(C#N)c3OC[C@H]1O2`, 1.07 ± 0.063.

Under setting [1], `CCS(=O)(=O)N1CCCCN2[C@H](CO)[C@H](c3ccc(-c4ccc(C(=O)N(C)C)cc4)cc3)[C@H]2C1` displayed a viability index of 1.07 ± 0.13. On the same count and under the same terms, as for `C[C@@H]1CN([C@@H](C)CO)C(=O)c2cc(N(C)C)ccc2O[C@@H](C)CCCCO[C@@H]1CN(C)S(=O)(=O)c1cn(C)cn1`, the figure is 1.18 ± 0.046; as for `C[C@H](NC(=O)C[C@H]1C=C[C@H](NS(=O)(=O)c2cccc(F)c2)[C@H](CO)O1)c1ccccc1`, 1.14 ± 0.087; as for `COCCNC[C@@H]1[C@@H](c2ccccc2)[C@@H](CO)N1c1nc(C)c(C)s1`, 0.956 ± 0.049. On the same count and under the same terms, as for `C[C@@H](NC(=O)C[C@H]1CC[C@H]2[C@@H](COC[C@H](O)CN2Cc2ccc(C(F)(F)F)cc2)O1)c1ccccc1`, the figure is 1.047 ± 0.0052; as for `O=C(c1cnccn1)N1CC(=O)N2[C@H](CO)[C@@H](c3ccc(C#CC4CC4)cc3)[C@H]2C1`, 1.09 ± 0.074; as for `CN(C)C(=O)C[C@H]1CC[C@@H]2[C@H](COC[C@@H](O)CN2C(=O)C2CCOCC2)O1`, 1.08 ± 0.026. `COc1cccc(CNC(=O)[C@H]2[C@H](CO)[C@H]3Cn4c(cccc4=O)[C@@H]2N3C(=O)C2CCCC2)c1` yielded a viability index under setting [1] of 0.987 ± 0.063. The same measure, in the same setting: as for `C[C@H]1CN([C@@H](C)CO)C(=O)CCCn2cc(nn2)CO[C@@H]1CN(C)C(=O)CCC(F)(F)F`, the figure is 0.944 ± 0.023; as for `COc1cccc(-c2ccc([C@@H]3[C@H]4CN(C(=O)c5cccnc5)CC(=O)N4[C@H]3CO)cc2)c1`, 0.983 ± 0.02. Same read-out and setting: to `O=C(Nc1ccc2c(c1)[C@H]1C[C@H](CC(=O)N3CCc4ccccc4C3)O[C@@H](CO)[C@H]1O2)c1ccc2c(c1)OCO2` belongs 1.1 ± 0.031; to `O=C(Cc1ccccc1)N1CC[C@@H]2[C@H]1c1cc(C#Cc3cccc(F)c3)ccc1N[C@@H]2CO`, 1.1 ± 0.033. Same read-out and setting: as for `O=C(C[C@H]1C=C[C@H](NC(=O)Cc2cccnc2)[C@@H](CO)O1)NCc1ccc2c(c1)OCO2`, the figure is 1.2 ± 0.026; as for `O=C1CN(S(=O)(=O)Cc2ccccc2)C[C@@H]2[C@H](c3ccc(C#Cc4ccccc4)cc3)[C@@H](CO)N12`, 0.906 ± 0.019; as for `CN1C(=O)c2cc(NS(=O)(=O)c3cccc(F)c3)ccc2OC[C@H]2O[C@H](CC(=O)NCCN3CCCCC3)CC[C@@H]21`, 1.007 ± 0.0079. As for `COc1ccc2c3c([C@H](CO)N(Cc4cccnc4)C[C@]33CN(C3)C(=O)c3cccnc3)n(C)c2c1`, the viability index under setting [1] was determined as 1.02 ± 0.028.

In turn, `COC(=O)C[C@@H]1CC[C@@H]2[C@H](COc3ccc(NS(=O)(=O)c4ccc(C)cc4)cc3C(=O)N2C)O1` returned a viability index under setting [1] of 1.1 ± 0.069.

As for `C[C@H]1CCCCO[C@H](CN(C)CC2CC2)[C@@H](C)CN([C@@H](C)CO)C(=O)c2cc(NC(=O)c3ccccc3)ccc2O1`, the viability index under setting [1] is 1.073 ± 0.0049. The same measure, in the same setting: to `CN(C)CC(=O)N1[C@H](C#N)[C@H](c2ccccc2-c2ccccc2F)[C@H]1CO` belongs 1.11 ± 0.12.
